Patent publication US20220251215A1
Blank lines part the entries; values can stand above or below the binder they belong to.

Tests used:
[1] = biological target: HLA.A2 with NY-ESO-1: 157-165 on IM9 cells; assay: cell-based or functional assay
[2] = biological target: HLA.A2/hB2M/NY-ESO-1: 157-165 WT on 3T3 cells (human) (UniProt P04439); assay: cell-based or functional assay

EC50 (#of APC cells), NFAT-luciferase [1]: 253000 APC cells
Max Fold (RLU), NFAT-luciferase [1]: 4.1 fold
EC50 (#of APC cells), NFAT-luciferase [2]: 88700 APC cells
Max Fold (RLU), NFAT-luciferase [2]: 30.5 fold
B1: NY-ESO CAR-T 24955N VL-VH (protein, part only; not given: scFv linker, hinge, signalling domains, not shown: large carriers)
chain, part: [in this place about 100 residues]TRLEIKEVQLVESGGGVVQPGGSLRLSCVASGFTFDDYAMYWVRQVPGKDLEWVSLISGDGDITYYVDSVKGRFTVSRDNNKNSLYLQMKSLRVEDTALYYCAKDMIYYASWSGYGSSDYYYYVMDVWGQGTTVTVSS

EC50 (#of APC cells), NFAT-luciferase [1]: 112000 APC cells
Max Fold (RLU), NFAT-luciferase [1]: 4.4 fold
EC50 (#of APC cells), NFAT-luciferase [2]: 25900 APC cells
Max Fold (RLU), NFAT-luciferase [2]: 38.1 fold
B2: NY-ESO CAR-T 24956N VL-VH (protein, part only; not given: scFv linker, hinge, signalling domains, not shown: large carriers)
chain, part: [in this place about 100 residues]PITFGQGTRLEIKEVQLVESGGGVVQPGGSLRLSCAASGFTFDDYAMYWVRQAPGKGLEWVSLISGDGGSMYYADSVKGRFTISRDNSKNSLYLQMNSLRTEDTALYYCAKDMIFYAFWSGYGSSDYYYYVMDVWGQGTTVTVYS
